We go through four molecules from patent publication US20230048360A1 (EUREKA THERAPEUTICS, published 2023).

Experiment [1] addresses T1, cell surface-bound human GPC3 on GPC3+ HepG2 cells (human, UniProt P51654 25-560, GPI anchor and heparin sulfate side chains, as the filing describes native GPC3).
T1 construct: Endogenous GPC3 of the HepG2 line; also called Glypican 3; native GPC3
The experiment can be described thus: FACS on GPC3+ HepG2 cells, L2K pre-mixed with or without soluble bt-GPC3(560), APC anti-His; soluble GPC3 concentration not shown on the sheet.

In experiment [2] the target is T1, cell surface-bound human GPC3 on GPC3+ …. The experiment can be described thus: FACS on GPC3+ HepG2 cells, labelled on the sheet GPC3A L2K against control L2K; control L2K median 93.8; axis PE-A.
Experiment [3] deals with T2, biotinylated GPC3-51mer fragment (human, biotinylated (site not stated)).
T2 construct: Synthesized by Elim Biopharmaceuticals; also called bt-GPC3-51mer; hGPC3-51mer fragment
T2 peptide: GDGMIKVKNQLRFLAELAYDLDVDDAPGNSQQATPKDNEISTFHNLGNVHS
The experiment can be described thus: phage ELISA on biotinylated GPC3-51mer. A general note: ELISA stands for enzyme-linked immunosorbent assay.

B1: GPC3-49 L2K (bispecific antibody)
tandem di-scFv: QAVLTQPSSASGTPGQRVTISCSGGSSNIGSNYVYWYQQLPGTAPKLLIYRNNQRPSGVPDRFSGSKSGTSASLAISGLRSEDEADYYCAAWDDSLSGWVFGGRTKLTVLGSRGGGGSGGGGSGGGGSLEMA[sequence of about 100 residues omitted]HGGIGSMRSFDQWGQGTLVTVSSTSGGGGSDVQLVQSGAEVKKPGASVKVSCKASGYTFTRYTMHWVRQAPGQGLEWIGYINPSRGYTNYADSVKGRFTITTDKSTSTAYMELSSLRSEDTATYYCARYYDDHYCLDYWGQGTTVTVSSGEGTSTGSGGSGGSGGADDIVLTQSPATLSLSPGERATLSCRASQSVSYMNWYQQKPGKAPKRWIYDTSKVASGVPARFSGSGSGTDYSLTINSLEAEDAATYYCQQWSSNPLTFGGGTKVEIKHHHHHH
notes: also called GPC3A-49 L2K
On to B1, for which the binding result in experiment [1] is listed as “binds”.

B2: GPC3-41 L2K (bispecific antibody)
tandem di-scFv: QAVLTQPPSASQTPGQMVTISCSGTSSNIGSNYVFWYQQLPGTAPKLLIYKNFQRPSGVPGRFSGSKSGTAASLAISGLRSEDEADYFCAAWDDALSGYVFGAGTKVTVLGSRGGGGSGGGGSGGGGSLEMA[sequence of about 100 residues omitted]SGKYYGDKWGQGTLVTVSSTSGGGGSDVQLVQSGAEVKKPGASVKVSCKASGYTFTRYTMHWVRQAPGQGLEWIGYINPSRGYTNYADSVKGRFTITTDKSTSTAYMELSSLRSEDTATYYCARYYDDHYCLDYWGQGTTVTVSSGEGTSTGSGGSGGSGGADDIVLTQSPATLSLSPGERATLSCRASQSVSYMNWYQQKPGKAPKRWIYDTSKVASGVPARFSGSGSGTDYSLTINSLEAEDAATYYCQQWSSNPLTFGGGTKVEIKHHHHHH
notes: also called GPC3A-41 L2K
In the case of B2, in experiment [1], the binding result is on record as “binds”.

B3: #56 GPC3A L2K (bispecific antibody)
tandem di-scFv: [sequence of about 100 residues omitted]RSRGGGGSGGGGSGGGGSLEMAQVQLQQSGAEVKKFGASVKVSCKASGYSFNDYYIHWVRQAPGQGLEWMGWINPNNGDTKYEKKWQGRVTMTRDTSITTAYMELSSLRSDDTAVYYCARFSTHNWWWPTYDYWGQGTLVTVSSTSGGGGSDVQLVQSGAEVKKPGASVKVSCKASGYTFTRYTMHWVRQAPGQGLEWIGYINPSRGYTNYADSVKGRFTITTDKSTSTAYMELSSLRSEDTATYYCARYYDDHYCLDYWGQGTTVTVSSGEGTSTGSGGSGGSGGADDIVLTQSPATLSLSPGERATLSCRASQSVSYMNWYQQKPGKAPKRWIYDTSKVASGVPARFSGSGSGTDYSLTINSLEAEDAATYYCQQWSSNPLTFGGGTKVEIKHHHHHH
notes: also called GPC3A-56 L2K; GPC3-56 L2K
As for B3, the “Median : PE-A” value in experiment [2] stood at 5630.

B4: GPC3A-47 phage clone (scFv)
scFv: LPVLTQPPSASGTPGQRVTISCSGSRSNIASNDVYWYQQLPGTAPKRLIYKKNQRPSGVPDRFSASKSGTSASLAISGLRSEDEADYYCAAWDDNLSGYVFGTGTKVTVLGSRGGGGSGGGGSGGGGSLEMA[sequence of about 100 residues omitted]SDYGSLYDKWGQGTLVTVSS
notes: also called GPC3A-047
Take B4: in experiment [3], the binding result is reported as “no binding”.
